Screen size: about 140,000 compounds; about 240 (0.17%) were called active. Inconclusive means that the source gave no clear call. Such entries were picked first, then a sample of the others. Calls come from the whole dose curve; as a rule, active = well fitted inhibition curve with a large enough effect; inconclusive = small, poorly fitted or top-dose-only effect; inactive = no such curve, though single readings can be large or run the other way. Potencies of inconclusive entries are doubtful fits and often do not repeat.
Assay: Primary qHTS assay for inhibitors of alpha-synuclein gene (SNCA) expression; note: nearly all actives have a fitted effect of over 45% in size;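 for activity change, negative = inhibition: plate controls were DMSO cells for no effect and cell-free wells for full effect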
Details: HEK-293 SNCA-luciferase knock-in, luminescence, 24 h; activity change, negative = inhibition: at 57.2 µM (top of the series) unless noted
Potency is the fitted concentration of half-maximal effect; tags give direction and shape of the fitted curve.

Structure (SMILES) | Potency | activity change, negative = inhibition
COc1ccccc1CN(C)C1CCCc2ccccc21 (centres undefined) | inconclusive: 56.2 µM [inhibitor, single point] | –
Cc1cc2nc3n(c(=O)c2n1CC(=O)NCc1ccccc1Cl)CCCC3 | inconclusive: 11.2 µM [inhibitor, partial curve, poor fit] | –
Cn1ncc2c(C(=O)NCc3ccc(F)c(F)c3)cc(C(C)(C)C)nc21 | inconclusive: 14.1 µM [inhibitor, partial curve, poor fit] | –
COc1ccc(-c2nc(CN3CC[C@H]4CC[C@@H](C3)N4)c(C)o2)c(OC)c1C | inconclusive: 7.94 µM [inhibitor, single point] | –
COc1cc(NC(=O)Cn2c(=O)nc(-c3ccccc3F)c3cc(Cl)ccc32)cc(OC)c1 | inconclusive: 14.1 µM [inhibitor, single point] | –
CCCNc1cc(N2CCC(CCC(=O)NCC3CC3)CC2)ncn1 | inconclusive: 0.891 µM [inhibitor, full curve, poor fit] | –
CN1[C@@H](CCC(=O)N2CCN(c3ccccn3)CC2)CNC(=O)[C@@H]2[C@H]1CCN2Cc1csnn1 | inconclusive: 8.91 µM [inhibitor, single point] | –
O=C(NCCCc1ccccc1)C1CCCN(Cc2cccc(-c3ccc(F)cc3F)c2)C1 (centres undefined) | – | inactive: -17.5%
COc1ccc(CN2Cc3[nH]cnc3C[C@H]2C(=O)N2CCC(Cc3ccccc3)CC2)cc1 | – | inactive: -2.42%
COCCN1C(=O)CS(=O)(=O)C12CCN(C(=O)Cc1ccc(OC)c(Cl)c1)CC2 | – | inactive: 14.2%
O=C(CNC(=O)c1cccc(-c2ccsc2)c1)NCc1ccccc1Cl | inconclusive: 22.4 µM [inhibitor, single point] | –
O=C1CO[C@H]2CN(c3ncccn3)C[C@H]2N1Cc1ccncc1 | – | inactive: 5.65% [at 87.6 µM]
O=C(CCc1nc(C2CC(=O)N(C3CCCCC3)C2)no1)c1ccc(Cl)cc1 (centres undefined) | inconclusive: 1.58 µM [inhibitor, full curve, poor fit] | –
CC(C)(Oc1nn(CCOc2ccccc2)c2ccccc12)C(=O)NCc1cnccn1 | – | inactive: -25.6% [at 87.6 µM]
CNC(=O)C1(NC(=O)c2ccc(CCC(C)(C)O)cc2)CCCCC1 | inconclusive: 8.91 µM [inhibitor, full curve, poor fit] | –
Cc1nn2c(c1-c1ccccc1Oc1ccccc1)N(Cc1ccccc1O)CCC2 | active: 2 µM | –
Cc1cc(C)cc(-c2ccc(CN3C4CCC3CN(C(=O)c3ccncc3)C4)cc2)c1 | – | inactive: -10.4%
CCCCN(CCCC)C1=C(C(=O)c2ccccc2)N(CC)S(=O)(=O)c2ccccc21 | inconclusive: 25.1 µM [inhibitor, single point] | –
COC(=O)c1ccc2c(c1)nc1n2[C@@H](CNCc2ccc(S(C)(=O)=O)cc2)COC1 | inconclusive: 2.82 µM [inhibitor, full curve, poor fit] | –
CC(C)C[C@@H]1N[C@H](C(=O)NC2CC2)Cc2cn(Cc3nccn3C)c3cccc1c23 | inconclusive: 56.2 µM [inhibitor, single point] | –

Structure (SMILES) | Potency | activity change, negative = inhibition
COC[C@H]1C[C@H]2C[C@@H](OC)[C@H](N(C)Cc3cccc(F)c3)[C@]2(O)CO1 | inconclusive: 3.98 µM [inhibitor, partial curve] | –
O=C1COCC2(CN1Cc1cccc(OC(F)(F)F)c1)CN(c1ccccc1F)C2 | – | inactive: -23% [at 87.6 µM]
COc1ccccc1Nc1c2c(nc3ccc(NC(=O)/C=C/c4cc(OC)c(OC)c(OC)c4)cc13)CCCC2 | inconclusive: 31.6 µM [inhibitor, single point] | –
CC(C)CCN1CCCC2(C1)C(=NC1CCCC1)NC(=O)N2c1cc(F)cc(F)c1 (centres undefined) | inconclusive: 35.5 µM [inhibitor, partial curve, poor fit] | –
O=C(NCc1cccc(F)c1)C1CCCCN1Cc1ccc(-c2ccsc2)cc1 (centres undefined) | inconclusive: 11.2 µM [inhibitor, partial curve, poor fit] | –
CCN(CC)C(=O)CSc1cn(CC(=O)N2CCCCCC2)c2ccccc12 | inconclusive: 3.55 µM [inhibitor, single point] | –
Cc1nn2c(c1-c1ccccc1-c1ccccc1)N(Cc1cccc(O)c1)CCC2 | inconclusive: 3.98 µM [inhibitor, full curve, poor fit] | –
CSCC(=O)N[C@H]1CCN2C(=O)N(c3ccc(C(C)C)cc3)C(=O)[C@@H]2C1 | – | inactive: 117% [at 87.6 µM]
Cc1cc(C)cc(N2C(=O)CS(=O)(=O)C23C(=O)N(C)c2ccccc23)c1 (centres undefined) | inconclusive: 15.8 µM [inhibitor, single point] | –
COc1cc(NC(=O)Cn2c(=O)n(Cc3ccccc3Cl)c(=O)c3cc(OC)c(OC)cc32)cc(OC)c1 | inconclusive: 0.178 µM [inhibitor, partial curve, poor fit] | –
CC(C)CNc1ccc2c(n1)C(C)(C(=O)NC(C)C)CN(Cc1ccccc1)C2 (centres undefined) | inconclusive: 56.2 µM [inhibitor, single point] | –
COc1ccc(C)cc1NS(=O)(=O)c1ccc(-c2cnc(C3CC3)o2)cc1 | inconclusive: 6.31 µM [inhibitor, full curve, poor fit] | –
Cc1ccc(C)c(S(=O)(=O)Nc2ccc3c(c2)CCCN3C(=O)c2cccs2)c1 | inconclusive: 22.4 µM [inhibitor, single point] | –
OC(c1cccc(C(F)(F)F)c1)c1nc(Nc2cccc(Cl)c2)n[nH]1 (centres undefined) | inconclusive: 12.6 µM [inhibitor, partial curve, poor fit] | –
COc1ccc(C(=O)N[C@H]2CCN3C(=O)c4cc(Br)ccc4NC(=O)[C@@H]3C2)cc1 | inconclusive: 11.2 µM [inhibitor, partial curve, poor fit] | –
O=C1Nc2ccccc2OCC12CCN(CC1CCCCC1)CC2 | inconclusive: 12.6 µM [inhibitor, single point] | –
Fc1ccc(CNc2ncnc3ccc(F)cc23)cc1 | inconclusive: 7.64 µM [inhibitor, partial curve, poor fit] | –
c1c[nH]c(C2CCCC2)n1 | inconclusive: 39.8 µM [inhibitor, partial curve] | –
Cc1cc(C)n(CCC(=O)N2CCC(C3CCN(S(C)(=O)=O)CC3)C2)n1 (centres undefined) | inconclusive: 39.8 µM [inhibitor, single point] | –
